# Measured values published in PubChem BioAssay (NCATS).
# Values joined by “and” are separate entries in the source; they are usually repeats but may differ in a detail not shown here. Identical values can stand only once. Inconclusive means that the source gave no clear call. Such entries were picked first, then a sample of the others. For some of these results: Where the call is inconclusive, the potency comes from a doubtful curve fit. Active and inactive are the calls of the source. Unless noted, calls come from the whole dose curve; as a rule, active = well fitted curve in the direction sought with a large enough effect; inconclusive = small, poorly fitted or top-dose-only effect, or another doubt; inactive = no such curve, though single readings can be large; an effect the other way counts as inactive or inconclusive.
# Columns and labels:
# [1] = qHTS Validation Assay to Find Inhibitors of Chronic Active B-Cell Receptor Signaling (AID 485345; active = well fitted curve in the direction sought with a large enough effect in the main read-out, with a control signal flat, not every such curve was filed as active; inconclusive = small, poorly fitted or top-dose-only effect, or effect the other way, or a change in a side signal; inactive = no such curve, though single readings can be large or run the other way; note: potency is the fitted concentration of half-maximal effect;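 for activity change: 0% = untreated basal cells and 100% = 10 µM MG-132 proteasome inhibitor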); details: ABC-DLBCL cells, chronic BCR signaling reporter; activity change: CBG luciferase, at 46.1 µM (top of the series)
# Procedure, shortened: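 TMD8 ABC-DLBCL cells with dox-inducible green luciferase–IκBα fusion and red native luciferase; compounds 46 uM–3 nM, 4 h at 37C with doxycycline in 0.5% FBS IMDM. Green/red ratio normalized to basal and 10 uM MG-132.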
# [2] = qHTS Assay for Identifying Gametocytocidal Compounds (AID 743244); note: potency is the fitted concentration of half-maximal effect;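 for max response: % is set by controls: 0 for no effect and ±100 for the full control effect; actives lower the fluorescent signal which means gametocytes are killed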; details: P. falciparum 3D7 stage III-V gametocytes, alamarBlue, 72 h; max response: stronger effect = lower value
# Procedure, shortened: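 A resazurin-based viability read-out was applied to mature P. falciparum gametocytes: 72 h compound treatment, then 24 h dye incubation, with falling fluorescence signalling gametocytocidal effect.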
# [3] = biological target: 3',5'-cyclic-AMP phosphodiesterase 4B (Homo sapiens) (UniProt Q07343); experiment: qHTS Assay for Inhibitors of PDE-IV (AID 607; active = well fitted activation curve with a large enough effect in the main read-out, with a control signal flat, not every such curve was filed as active; inconclusive = small, poorly fitted or top-dose-only effect, or effect the other way, or a change in a side signal; note: potency is the fitted concentration of half-maximal effect); details: HEK293 ACTOne CNG channel cells, membrane potential fluorescence; activation (PDE inhibition): at 22.9 µM (top of the series)
# Procedure, shortened: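 ACTOne HEK293 cells carry a modified cAMP-gated CNG channel and express endogenous PDE4; plated 1000 cells/well, compounds up to 22.9 uM final. Membrane-potential dye fluorescence (ex 535/em 590) was read; parental cells received 10 uM forskolin + 100 uM RO 20-1724.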
# [4] = biological target: M-phase phosphoprotein 8 (Homo sapiens) (UniProt Q99549); experiment: qHTS Validation Assay for Inhibitors for MPP8 Chromodomain Interactions with Methylated Histone Tails (AID 488949); details: AlphaScreen MPP8 binding to H3K9me3 peptide; activity change, negative = inhibition: at 57.1 µM (top of the series) unless noted; note: nearly all actives have a fitted effect of over 55% in size; note: potency is the fitted concentration of half-maximal effect;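 for activity change, negative = inhibition: AlphaScreen signal from MPP8 chromodomain bound to biotinylated H3K9me3 peptide; top concentration of the series differs between compounds; % is set by controls: 0 for no effect and ±100 for the full control effect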
# Procedure, shortened: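 AlphaScreen read-out: streptavidin donor and nickel chelate acceptor beads (final 10 ug/mL), 30 min in the dark at RT. Complex of 50 nM MPP8 and 50 nM b-H3(1-18)K9me3 peptide had been exposed to compounds for 30 min beforehand.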
# [5] = tested on: Zika virus NS2B-NS3 protease; experiment: Primary screen GU AMC qHTS for Zika virus inhibitors (AID 1347154); details: Zika NS2B-NS3 unlinked protease, AMC fluorogenic substrate; series mostly up to 54.1 µM; note: nearly all actives have a fitted effect of over 70% in size; note: potency is the fitted concentration of half-maximal effect;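 for activity change, negative = inhibition: 0% = no-inhibitor control and -100% = no-enzyme control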
# Procedure, shortened: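 Unlinked Zika NS2B hydrophilic domain/NS3 protease domain noncovalent complex (25 nM final) in 10 mM Tris-HCl pH 8.0, 0.01% Tween 20, with AMC peptide substrate. Fluorescence (ex 340, em 450 nm) change over 15 min, room temperature; percent inhibition fitted to 4-parameter Hill equation.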
# [6] = qHTS for differential inhibitors of proliferation of Plasmodium falciparum line Dd2 (AID 1882); details: Potency: Plasmodium falciparum Dd2 proliferation inhibition; series mostly up to 28.7 µM; note: nearly all actives have a fitted effect of over 65% in size; note: potency is the fitted concentration of half-maximal effect;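 for activity change, negative = inhibition: plate controls were DMSO vehicle for no effect and 0.29 µM artemisinin for full effect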
# Procedure, shortened: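 SYBR Green DNA fluorescence (ex 485, em 535 nm) after overnight lysis quantifies parasite growth; compound exposure lasted 72 h at 37 C on infected red cells at 2.5% hematocrit, 0.3% parasitemia (final). Artemisinin 0.29 uM and vehicle wells define normalization.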
# [7] = High Content Imaging Cell-Based qHTS for Inhibitors of the mTORC1 Signaling Pathway in MEF Cells (AID 2667); details: series mostly up to 38.3 µM; note: potency is the fitted concentration of half-maximal effect;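 for activity change, negative = inhibition: Tsc2-/- p53-/- MEFs stably re-expressing wild-type Tsc2 exposed 24 h; plate controls were DMSO wells for no effect and rapamycin control wells for full effect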
# Procedure, shortened: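 Fixed-cell imaging of phospho-S6 (Ser235/236, Alexa-488) after 24 hrs of compound treatment at 37 degree Celsius. Signal was normalized to Hoechst, and thresholds from the highest and lowest wells split cells into % active versus % non-active.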
# [8] = Cytometry Cell-Based qHTS for Inhibitors of the mTORC1 Signaling Pathway in MEF cells (AID 2668); details: mTORC1 pathway readout; series mostly up to 38.3 µM; note: potency is the fitted concentration of half-maximal effect
# Procedure, shortened: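 Read-out: phospho-rpS6 Ser235/236 immunofluorescence normalized to propidium iodide intensity, scored as % active cells against a rapamycin (7.5 nM) threshold. Cells: Tsc2-/-, p53-/- MEFs stably expressing WT Tsc2, compound-treated 24 hrs at 37 degree Celsius.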
# [9] = Tertiary RLuc qRT-PCR qHTS assay for Zika virus inhibitors (AID 1347169); details: infected Vero cells, reporter luminescence, 48-72 h; series mostly up to 45.9 µM; note: potency is the fitted concentration of half-maximal effect; nearly all actives have a fitted effect of over 55% in size
# Procedure, shortened: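 Luminescence read-out: live-cell Renilla luciferase substrate applied to infected Vero cells, signal measured after 1-1.5 hrs. Cells had received compound before ZIKV-RLuc (Cambodian strain, MOI 1-2) infection and were incubated 48-72 hrs at 37 degrees C.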
# [10] = Quantitative high throughput screen for delayed death inhibitors of the malarial parasite plastid, 48 hour incubation (AID 488752); details: Plasmodium falciparum growth; series mostly up to 28.7 µM; note: nearly all actives have a fitted effect of over 65% in size; note: potency is the fitted concentration of half-maximal effect
# Procedure, shortened: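 First, compound was pinned into RPMI 1640 medium containing 0.5% Albumax. Next, reporter-parasite-infected erythrocytes were added to 2% hematocrit and 0.1% parasitemia. After 48 h at 37 C under 5% CO2, luciferase detection reagent was added and luminescence read.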
# [11] = NFAT Signaling Pathway (AID 444; active = well fitted curve in either direction with a large enough effect, not every such curve was filed as active; inconclusive = small, poorly fitted or top-dose-only effect, or another doubt;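 note: carbachol stimulus at about its EC50 of 1 µM final; % is set by controls: 0 for no effect and ±100 for the full control effect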); details: Jurkat NFAT-bla M1, carbachol, beta-lactamase ratio, 5 h
# Procedure, shortened: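 Jurkat cells carrying an NFAT-driven β-lactamase reporter and co-transfected muscarinic M1 receptor were treated with compound plus carbachol (1 uM final, an EC50 level) for 5 h at 37 °C. CCF4 loading followed for 1 h at RT; 460/530 nm ratio gave %activity.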
# [12] = biological target: Peptidyl-prolyl cis-trans isomerase NIMA-interacting 1 (Homo sapiens) (UniProt Q13526); experiment: qHTS Validation Assay to Find Inhibitors of Pin1 (AID 504536; active = well fitted inhibition curve with a large enough effect in the polarisation, with a control signal flat, not every such curve was filed as active; inconclusive = small, poorly fitted or top-dose-only effect, or effect the other way; the % refers to the polarisation; note: potency is the fitted concentration of half-maximal effect); details: Pin1 fluorescence polarization peptide binding assay; series mostly up to 57.5 µM
# Procedure, shortened: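 Fluorescence polarization competition: compounds (titration) displace HiFluor-488-labeled Pin1-1b peptide from Pin1 (0.3 uM final) in pH 7.5 HEPES buffer with DTT, 10 min at room temperature; %Activity normalized to no-enzyme wells, curves fitted.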
# [13] = tested on: Zika virus NS2B-NS3 protease (unlinked); experiment: Optimization of GU AMC qHTS for Zika virus inhibitors: Unlinked NS2B-NS3 protease assay (AID 1347151); details: recombinant ZIKV NS2B-NS3 protease, fluorogenic AMC substrate; series mostly up to 52.5 µM; note: nearly all actives have a fitted effect of over 80% in size; note: potency is the fitted concentration of half-maximal effect;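 for activity change, negative = inhibition: 0% = no-inhibitor control and -100% = no-enzyme control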
# Procedure, shortened: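 Fluorescence read-out (340 nm ex / 450 nm em) of AMC peptide cleavage, taken immediately and after 15 min at room temperature (~20% conversion). Enzyme was the unlinked NS2B–NS3 complex at 25 nM in Tris pH 8.0 buffer.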
# [14] = qHTS Assay for Modulators of Human Peripheral Myelin Protein 22 (PMP22) Expression/Activity (AID 1967; active = well fitted curve in the direction sought with a large enough effect in the signal ratio; inconclusive = small, poorly fitted or top-dose-only effect, or effect the other way, or a change in a side signal; inactive = no such curve, though single readings can be large or run the other way; the % refers to the signal ratio;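 note: 0% = untreated cells and 100% end not stated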); details: Cell-based PMP22 reporter, dual-color luciferase ratio, mouse Pmp22 promoter in mouse Schwann cells; activity change (ratio): at 115 µM (top of the series), 0% = compound-free control cells
# Procedure, shortened: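 Mouse MSC80 Schwann line, Pmp22 promoter–CBG68 reporter, EF-alpha–CBR internal control. 24h compound exposure, 37 °C/5% CO2, DMEM + 10% FBS. Readout: corrected green/red luminescence ratio, normalized to untreated cells; concentration-response curves fitted and classified.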
# [15] = biological target: Tyrosine-protein phosphatase non-receptor type substrate 1 (Homo sapiens) + Leukocyte surface antigen CD47 (Homo sapiens) (UniProt P78324+Q08722); experiment: CD47-SIRPalpha protein protein interaction - Alpha assay qHTS validation (AID 1347059); details: AlphaScreen CD47-His/biotin-SIRPalpha binding, LOPAC; series mostly up to 38.3 µM;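 note: bead proximity luminescence from CD47 binding SIRPalpha after compound preincubation with SIRPalpha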; note: potency is the fitted concentration of half-maximal effect; for activity change, negative = inhibition: % is set by controls: 0 for no effect and ±100 for the full control effect
# Procedure, shortened: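 In PBS (pH 7.4) with 0.05% IGEPAL CA-630, compound is preincubated with biotin-Avi-SIRPalpha ectodomain before His-CD47 ectodomain and affinity beads are added. Light-protected room-temperature incubations; AlphaScreen readout.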
# [16] = biological target: D(1A) dopamine receptor (Homo sapiens) (UniProt P21728); experiment: HTS Assay for Allosteric Agonists of the Human D1 Dopamine Receptor: Primary Screen for Antagonists (AID 488983); details: D1 receptor cell assay, antagonist mode, qHTS titration; activity change, negative = inhibition: at 41.8 µM (top of the series);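 note: calcium flux response to an EC80 dopamine challenge measured with no-wash dye; potency is the fitted concentration of half-maximal effect; nearly all actives have a fitted effect of over 65% in size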
# Procedure, shortened: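 Kinetic fluorescence at 1 cycle/sec tracked intracellular calcium in force-coupled, tetracycline-inducible HEK293 T-REx D1 cells. Loss of response to an EC80 dopamine dose, given 180 s after compound, marked antagonists.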
# [17] = Nrf2 qHTS screen for inhibitors: Validation (AID 493153; active = well fitted inhibition curve with a large enough effect in the main read-out, with a control signal flat, not every such curve was filed as active; inconclusive = small, poorly fitted or top-dose-only effect, or effect the other way, or a change in a side signal; inactive = no such curve, though single readings can be large or run the other way; note: potency is the fitted concentration of half-maximal effect); details: A549 ARE-Fluc reporter, luciferase luminescence, 18-24 h; series mostly up to 46.1 µM
# Procedure, shortened: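 A549 ARE_Fluc, 5% FBS OPTI-MEM; cpd titration, 18-24 h, 37°C/5% CO2. Read 1: CellTiter-Fluor (Ex 405/Em 525), cytotox. Read 2: luciferase lum, Nrf2 activity.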
# [18] = biological target: D(1A) dopamine receptor (Homo sapiens) (UniProt P21728); experiment: HTS Assay for Allosteric Agonists of the Human D1 Dopamine Receptor: Primary Screen for Potentiators (AID 488982); details: HEK293 T-REx D1 inducible cells, calcium flux, kinetic fluorescence; series mostly up to 8.37 µM; note: potency is the fitted concentration of half-maximal effect
# Procedure, shortened: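 Tetracycline-induced HEK293 T-REx cells force-coupled to calcium signalling were incubated overnight at 30 C and dye-loaded at room temperature. Calcium flux over 180 s after compound addition flagged agonists; a further 180 s read after EC20 dopamine flagged potentiators.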
# [19] = biological target: DNA repair nuclease/redox regulator APEX1 (Homo sapiens) (UniProt P27695); experiment: qHTS Validation Assay for Inhibitors of the Human Apurinic/apyrimidinic Endonuclease 1 (APE1) (AID 1705;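 note: TAMRA fluorescence gain over two minutes as APE1 cuts a quenched THF abasic duplex; % is set by controls: 0 for no effect and ±100 for the full control effect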); details: purified APE1 endonuclease activity, fluorescence, titration; series mostly up to 57.1 µM
# Procedure, shortened: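 Read-out: TAMRA fluorescence (525 nm ex, 598 nm em) from cleavage of a quenched THF abasic-site duplex, 50 nM final; activity taken as intensity change between third and first of three reads 60 s apart.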
# Tags give direction and shape of the fitted curve or compound fluorescence and quenching.
# UniProt Q13526, sequence (Q13526 whole entry, looked up): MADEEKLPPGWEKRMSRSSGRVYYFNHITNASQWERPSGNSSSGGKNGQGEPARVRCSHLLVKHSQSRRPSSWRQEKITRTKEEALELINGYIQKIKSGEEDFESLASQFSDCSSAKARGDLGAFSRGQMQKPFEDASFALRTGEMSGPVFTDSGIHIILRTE
# UniProt P78324, sequence (P78324 whole entry, looked up, the tested form may be a part): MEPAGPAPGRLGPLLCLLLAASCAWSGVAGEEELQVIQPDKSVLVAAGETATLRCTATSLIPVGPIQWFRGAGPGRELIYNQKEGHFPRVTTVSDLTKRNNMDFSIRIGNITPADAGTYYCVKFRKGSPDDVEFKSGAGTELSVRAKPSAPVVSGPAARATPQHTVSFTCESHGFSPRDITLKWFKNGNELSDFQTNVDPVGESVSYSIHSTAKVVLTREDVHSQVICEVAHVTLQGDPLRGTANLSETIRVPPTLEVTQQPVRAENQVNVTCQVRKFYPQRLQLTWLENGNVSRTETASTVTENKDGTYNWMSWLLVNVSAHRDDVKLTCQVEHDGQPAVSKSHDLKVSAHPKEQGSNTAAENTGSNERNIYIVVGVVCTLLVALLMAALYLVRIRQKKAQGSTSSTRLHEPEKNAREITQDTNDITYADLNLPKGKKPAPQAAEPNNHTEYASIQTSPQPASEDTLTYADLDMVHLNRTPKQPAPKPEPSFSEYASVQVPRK
# UniProt P78324, sequence (Q08722 whole entry, looked up, the tested form may be a part): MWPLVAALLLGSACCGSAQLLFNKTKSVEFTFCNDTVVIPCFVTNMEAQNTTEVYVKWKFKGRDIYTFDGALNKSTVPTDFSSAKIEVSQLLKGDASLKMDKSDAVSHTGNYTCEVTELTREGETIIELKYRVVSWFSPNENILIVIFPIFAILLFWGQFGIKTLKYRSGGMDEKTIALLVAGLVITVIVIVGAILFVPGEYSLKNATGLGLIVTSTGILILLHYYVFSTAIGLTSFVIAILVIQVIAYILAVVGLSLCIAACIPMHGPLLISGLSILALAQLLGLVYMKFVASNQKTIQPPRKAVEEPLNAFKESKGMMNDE
# UniProt Q99549, sequence (Q99549 whole entry, looked up): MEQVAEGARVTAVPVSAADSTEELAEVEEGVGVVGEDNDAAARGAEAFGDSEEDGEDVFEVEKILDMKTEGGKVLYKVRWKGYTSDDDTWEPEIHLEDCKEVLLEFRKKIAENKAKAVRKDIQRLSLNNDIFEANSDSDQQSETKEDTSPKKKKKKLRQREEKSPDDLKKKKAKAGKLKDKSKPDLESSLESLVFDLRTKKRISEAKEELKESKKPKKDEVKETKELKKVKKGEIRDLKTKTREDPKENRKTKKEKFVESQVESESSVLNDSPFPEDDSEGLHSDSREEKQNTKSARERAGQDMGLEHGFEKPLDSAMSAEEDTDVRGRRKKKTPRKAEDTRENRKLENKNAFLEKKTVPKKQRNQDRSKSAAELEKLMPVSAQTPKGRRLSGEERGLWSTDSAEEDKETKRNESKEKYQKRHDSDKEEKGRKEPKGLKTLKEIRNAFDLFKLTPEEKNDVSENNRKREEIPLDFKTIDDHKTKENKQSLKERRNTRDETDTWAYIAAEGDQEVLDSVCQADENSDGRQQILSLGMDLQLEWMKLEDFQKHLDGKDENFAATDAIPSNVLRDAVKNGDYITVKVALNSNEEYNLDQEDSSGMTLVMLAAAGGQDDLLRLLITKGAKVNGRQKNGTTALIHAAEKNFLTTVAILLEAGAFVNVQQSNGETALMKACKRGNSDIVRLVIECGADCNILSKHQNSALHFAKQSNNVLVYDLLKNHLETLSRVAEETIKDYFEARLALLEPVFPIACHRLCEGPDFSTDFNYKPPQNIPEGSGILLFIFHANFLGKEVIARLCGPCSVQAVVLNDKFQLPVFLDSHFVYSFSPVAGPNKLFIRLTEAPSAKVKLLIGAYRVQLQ
# UniProt P21728, sequence (P21728 whole entry, looked up): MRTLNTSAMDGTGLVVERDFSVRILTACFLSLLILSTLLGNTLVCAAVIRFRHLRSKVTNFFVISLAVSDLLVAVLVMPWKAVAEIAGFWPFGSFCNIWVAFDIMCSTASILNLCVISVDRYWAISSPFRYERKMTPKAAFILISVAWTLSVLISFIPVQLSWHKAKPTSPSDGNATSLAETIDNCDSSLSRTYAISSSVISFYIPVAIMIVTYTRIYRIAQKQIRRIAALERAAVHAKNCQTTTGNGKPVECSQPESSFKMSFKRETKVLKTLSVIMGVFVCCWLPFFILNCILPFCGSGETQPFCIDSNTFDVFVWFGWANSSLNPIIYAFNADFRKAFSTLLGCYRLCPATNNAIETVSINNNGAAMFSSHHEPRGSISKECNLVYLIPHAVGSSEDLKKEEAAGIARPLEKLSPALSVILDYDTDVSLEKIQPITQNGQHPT
# UniProt Q07343, sequence (Q07343 whole entry, looked up): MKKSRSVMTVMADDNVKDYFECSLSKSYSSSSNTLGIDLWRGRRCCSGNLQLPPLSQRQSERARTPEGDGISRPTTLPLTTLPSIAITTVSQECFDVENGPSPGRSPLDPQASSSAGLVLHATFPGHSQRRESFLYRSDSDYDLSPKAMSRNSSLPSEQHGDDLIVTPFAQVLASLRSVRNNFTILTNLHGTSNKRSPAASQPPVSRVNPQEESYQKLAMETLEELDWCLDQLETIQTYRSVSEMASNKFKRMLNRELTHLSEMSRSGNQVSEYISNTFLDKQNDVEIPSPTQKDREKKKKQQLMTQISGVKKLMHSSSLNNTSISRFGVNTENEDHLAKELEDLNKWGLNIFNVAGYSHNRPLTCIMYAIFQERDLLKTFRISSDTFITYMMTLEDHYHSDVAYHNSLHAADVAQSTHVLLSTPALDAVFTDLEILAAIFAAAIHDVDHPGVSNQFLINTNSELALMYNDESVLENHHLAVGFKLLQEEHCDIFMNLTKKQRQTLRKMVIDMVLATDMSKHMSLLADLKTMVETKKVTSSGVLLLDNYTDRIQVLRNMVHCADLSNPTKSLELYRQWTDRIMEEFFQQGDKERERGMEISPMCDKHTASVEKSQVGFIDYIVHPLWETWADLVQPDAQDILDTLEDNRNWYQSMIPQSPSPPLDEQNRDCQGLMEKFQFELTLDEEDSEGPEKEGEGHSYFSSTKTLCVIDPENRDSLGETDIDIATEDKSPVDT
# UniProt P27695, sequence (P27695 whole entry, looked up): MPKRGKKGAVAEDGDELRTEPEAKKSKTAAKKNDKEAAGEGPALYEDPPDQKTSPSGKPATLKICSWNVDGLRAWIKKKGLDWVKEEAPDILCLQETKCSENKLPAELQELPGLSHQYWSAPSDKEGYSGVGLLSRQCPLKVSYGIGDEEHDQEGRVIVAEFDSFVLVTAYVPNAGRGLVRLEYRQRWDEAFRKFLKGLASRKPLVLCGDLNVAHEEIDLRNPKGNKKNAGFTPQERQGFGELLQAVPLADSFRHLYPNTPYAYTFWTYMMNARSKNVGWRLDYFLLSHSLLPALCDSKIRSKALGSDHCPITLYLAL
compound,measurement,setting,value
CC(N)=NCCCC[C@@H](N)C(=O)O,Potency,[1],inactive
same,max response,[2],inactive: 25.1%
N#Cc1cc2nc(O)c(O)nc2cc1[N+](=O)[O-],Potency,[3],"inconclusive: 19 µM [inhibitor, single point]"
same,"activity change, negative = inhibition",[4],inconclusive: -15.6% [inhibitor] [at 114 µM]
same,Potency,[5],inactive
C=CCN1CCc2c(cc(O)c(O)c2Br)[C@@H](c2ccccc2)C1,Potency,[6],active: 8.91 µM
same,Potency,[7],"inconclusive: 23.3 µM [falling, single point]"
same,Potency,[8],"inconclusive: 26.1 µM [falling, single point]"
same,Potency,[4],"inconclusive: 44.7 µM [inhibitor, partial curve]"
same,Potency,[2],"inconclusive: 0.891 µM [inhibitor, full curve]"
same,Potency,[5],"inconclusive: 8.44 µM [inhibitor, partial curve, poor fit]"
same,Potency,[9],active: 11.7 µM
O=C(O)Cc1c[nH]c2ccc(O)cc12,Potency,[7],inactive
same,Potency,[1],"inconclusive: 20.6 µM [rising, single point]"
same,Potency,[10],"inconclusive: 10.4 µM [inhibitor, single point]"
same,Potency,[4],"inconclusive: 26.7 µM [inhibitor, single point]"
c1ccc2nc(C3=NCCN3)ccc2c1,"activity change, negative = inhibition",[11]; at 38 µM (top of the series),inactive: -13%
same,Potency,[12],inactive
same,Potency,[13],"inconclusive: 21.2 µM [inhibitor, partial curve, poor fit]"
NCCCCN,Potency,[14],inactive
CCCCCCCCCC(=O)NC(CN1CCOCC1)[C@H](O)c1ccccc1 (stereo not given in full),Potency,[7],"inconclusive: 23.3 µM [falling, single point]"
same,Potency,[8],"inconclusive: 23.3 µM [falling, single point]"
same,Potency,[10],"inconclusive: 18.5 µM [inhibitor, single point]"
same,Potency,[2],active: 3.55 µM
same,Potency,[15],inactive
Cc1ccccc1/C=C/C1=NCCN1,Potency,[6],"inconclusive: 12.6 µM [inhibitor, single point]"
same,Potency,[10],inactive
same,Potency,[16],active: 12.6 µM
same,Potency,[2],"inconclusive: 6.31 µM [inhibitor, single point]"
CCCc1c(OCCCOc2ccc(OCC(=O)O)cc2)ccc(C(C)=O)c1O,"activity change, negative = inhibition",[11]; at 38 µM (top of the series),inactive: -26.4%
same,Potency,[16],"inconclusive: 28.2 µM [activator, single point]"
same,Potency,[17],"inconclusive: 11.6 µM [inhibitor, partial curve, poor fit]"
same,Potency,[9],"inconclusive: 20.8 µM [inhibitor, partial curve]"
NC(N)=[N+]1CCc2ccccc2C1,Potency,[18],"inconclusive: 517 nM [activator, partial curve, poor fit]"
same,Potency,[17],active: 16.4 µM
CC(C)NC[C@H](O)c1ccc(O)c(O)c1,"activity change, negative = inhibition",[11]; at 17.2 µM (top of the series),inactive: -6.44% and inactive: -3.44%
same,Potency,[3],"inconclusive: 4.77 µM [activator, partial curve, poor fit]"
same,Potency,[18],"inconclusive: 2.59 µM [activator, single point] and inconclusive: 1.03 µM [activator, partial curve, poor fit]"
CC1=C(C(=O)O)N2C(=O)[C@@H](NC(=O)C(N)C3=CCC=CC3)[C@H]2SC1 (stereo not given in full),activity change (ratio),[14],inconclusive: 32.8%
same,Potency,[18],inactive
same,Potency,[12],"inconclusive: 10.7 µM [falling, partial curve, poor fit]"
same,Potency,[15],inactive
NC(N)=NC(N)=Nc1cccc(Cl)c1,Potency,[19],inactive
same,Potency,[7],inactive
same,Potency,[17],"inconclusive: 0.651 µM [inhibitor, partial curve, poor fit]"
CC1(C)C(\C=C/C=C\C=C/C=C2/N(CCCCS(=O)(=O)O)c3ccc4ccccc4c3C2(C)C)=[N+](CCCCS(=O)(=O)[O-])c2ccc3ccccc3c21,max response,[2],inactive: 2.8%
same,Potency,[9],"inconclusive: 0.708 µM [inhibitor, partial curve, poor fit]"
COc1ccc2c(c1)CCC1C2CC[C@@]2(C)C1CC[C@@H]2NCCCCCCN1C(=O)C=CC1=O (stereo not given in full),Potency,[15],"inconclusive: 13.1 µM [inhibitor, partial curve]"
O=C(O)[C@H]1NCCC[C@H]1C(=O)O,Potency,[10],inactive
same,Potency,[4],"inconclusive: 89.1 µM [inhibitor, single point]"
O=C(c1ccc2c(c1)OCCO2)N1CCCCC1,"activity change, negative = inhibition",[11]; at 38 µM (top of the series),inactive: 5.58%
same,Potency,[6],inactive
same,Potency,[1],inactive
same,Potency,[12],inactive
same,Potency,[13],inactive
